The list shows a part of the results. Cleavage of a single-stranded DNA pool by Rep nickase domains was read by sequencing (1 h at 37 °C, 3 µM enzyme); the outer parts of the 90-letter strands are left off. Uncut reads are compared with the no-enzyme pool on a log2 scale; uncut sequences lie near 0, cut ones below; no hit call is given. Reads are scaled to the total; uncut strands gain when others are lost, and binding without cutting may add a little.
Assays:
Assay in all cases: uncleaved DNA left, log2 of reads against the no-enzyme library (log2 ratio); higher = less cleavage (more negative = more Rep cleavage of the k-mer); sequences stand for … in CTCGTCCG…ACCGGAGA
[1] = system: T1, Rep nickase domain of Muscovy duck circovirus
T1 sequence (Rep 1-111, printed without the tag): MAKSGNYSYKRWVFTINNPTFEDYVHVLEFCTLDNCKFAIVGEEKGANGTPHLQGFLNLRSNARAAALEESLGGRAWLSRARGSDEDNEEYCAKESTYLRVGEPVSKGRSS
Experimental: (§1)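 A pool of 90-nt single-stranded DNAs with seven random bases just before the constant AC of the nick site (name = the seven bases) was cut by 3 µM recombinant His6-SUMO-tagged Rep nickase domain (300 nM DNA, 50 mM HEPES pH 8.0, 50 mM NaCl, 1 mM MnCl2, 1 h, 37 °C, three replicates). Uncut DNA was amplified and sequenced.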

[2] = system: T2, Rep nickase domain of banana bunchy top virus
T2 sequence (Rep 1-94, printed without the tag): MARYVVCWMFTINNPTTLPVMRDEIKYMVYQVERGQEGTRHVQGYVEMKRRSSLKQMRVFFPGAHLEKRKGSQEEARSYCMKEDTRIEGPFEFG
Experimental: as §1

[3] = system: T3, Rep nickase domain of cabbage leaf curl virus
T3 sequence (Rep 1-116, printed without the tag): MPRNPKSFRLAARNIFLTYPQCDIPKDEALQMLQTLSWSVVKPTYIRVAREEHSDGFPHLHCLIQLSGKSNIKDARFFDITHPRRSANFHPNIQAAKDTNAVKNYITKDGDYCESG
Experimental: as §1

[4] = system: T4, Rep nickase domain of chickpea chlorotic dwarf virus
T4 sequence (Rep 1-124, printed without the tag): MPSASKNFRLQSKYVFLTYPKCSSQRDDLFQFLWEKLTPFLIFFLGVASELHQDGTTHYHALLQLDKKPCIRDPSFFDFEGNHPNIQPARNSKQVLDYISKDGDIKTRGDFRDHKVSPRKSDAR
Experimental: as §1

[5] = system: T5, Rep nickase domain of faba bean necrotic yellows virus
T5 sequence (Rep 1-98, printed without the tag): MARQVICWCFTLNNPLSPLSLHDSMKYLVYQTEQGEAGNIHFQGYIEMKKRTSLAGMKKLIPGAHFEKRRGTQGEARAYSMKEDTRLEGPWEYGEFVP
Experimental: as §1

[6] = system: T6, Rep nickase domain of maize striate mosaic virus
T6 sequence (Rep 1-117, printed without the tag): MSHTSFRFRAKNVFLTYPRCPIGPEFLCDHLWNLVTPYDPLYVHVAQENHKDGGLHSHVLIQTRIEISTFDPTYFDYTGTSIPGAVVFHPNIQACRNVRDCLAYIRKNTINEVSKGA
Experimental: as §1

[7] = system: T7, Rep nickase domain of porcine circovirus 2
T7 sequence (Rep 2-116, printed without the tag): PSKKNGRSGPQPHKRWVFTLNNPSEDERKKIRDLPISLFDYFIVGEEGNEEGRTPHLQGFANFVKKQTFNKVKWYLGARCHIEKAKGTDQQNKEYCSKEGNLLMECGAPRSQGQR
Experimental: as §1

[8] = system: T8, Rep nickase domain of tomato golden mosaic virus
T8 sequence (Rep 1-124, printed without the tag): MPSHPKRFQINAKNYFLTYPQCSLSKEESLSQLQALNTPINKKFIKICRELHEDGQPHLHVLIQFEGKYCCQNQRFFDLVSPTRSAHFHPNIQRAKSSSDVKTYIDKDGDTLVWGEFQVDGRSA
Experimental: as §1

[9] = system: T9, Rep nickase domain of tomato yellow leaf curl virus
T9 sequence (Rep 1-136, printed without the tag): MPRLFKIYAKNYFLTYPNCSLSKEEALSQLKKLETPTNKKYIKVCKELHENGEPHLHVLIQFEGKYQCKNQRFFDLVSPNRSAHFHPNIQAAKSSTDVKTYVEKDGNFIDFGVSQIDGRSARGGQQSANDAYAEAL
Experimental: as §1

[10] = system: T10, Rep nickase domain of wheat dwarf virus
T10 sequence (Rep 1-137, printed without the tag): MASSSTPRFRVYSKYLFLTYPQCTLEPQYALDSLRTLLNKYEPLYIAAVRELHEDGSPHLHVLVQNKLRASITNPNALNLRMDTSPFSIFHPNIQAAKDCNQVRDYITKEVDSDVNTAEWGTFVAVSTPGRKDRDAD
Experimental: as §1

Row | Sequence | uncleaved DNA left (log2) [1] | uncleaved DNA left (log2) [2] | uncleaved DNA left (log2) [3] | uncleaved DNA left (log2) [4] | uncleaved DNA left (log2) [5] | uncleaved DNA left (log2) [6] | uncleaved DNA left (log2) [7] | uncleaved DNA left (log2) [8] | uncleaved DNA left (log2) [9] | uncleaved DNA left (log2) [10]
1 | GAGCGAC | 0.0371 | 0.0128 | 0.111 | 0.751 | -0.0725 | 1.35 | 0.0836 | 0.0447 | -0.00538 | 0.0143
2 | CCTTGGA | -0.0653 | -0.026 | -0.216 | -0.296 | 0.0384 | -0.99 | 0.109 | -0.00678 | -0.0114 | 0.00191
3 | GGGTCAC | 0.0582 | 0.0581 | 0.814 | 1.9 | -0.00923 | 2.25 | 0.215 | 0.0319 | 0.016 | 0.0682
4 | GGAACTA | -0.00786 | 0.0977 | 0.78 | 1.85 | -0.0601 | 2.13 | 0.202 | -0.0291 | 0.0593 | 0.164
5 | TCGCAAA | 0.137 | -0.0277 | 0.0229 | -0.0989 | 0.0253 | -0.595 | -0.0943 | -0.106 | -0.132 | -0.119
6 | CTCTTAT | -0.33 | -0.122 | 0.125 | -1.09 | -0.133 | -0.627 | -1.35 | -0.0471 | 0.0314 | -0.178
7 | TGTCACA | 0.105 | 0.0292 | 0.296 | -0.221 | 0.00804 | 0.57 | -0.0241 | 0.0149 | 0.0842 | 0.0561
8 | ACGACGT | 0.0171 | -0.065 | -0.0819 | 0.164 | -0.00213 | -0.242 | 0.0274 | 0.117 | -0.0709 | 0.0187
9 | ACCCCCT | -0.0262 | -0.0709 | -0.22 | -2.01 | -0.108 | -0.335 | -0.229 | -0.0156 | -0.255 | -0.017
10 | TGCCTAC | 0.0433 | 0.0207 | 0.131 | -0.867 | -0.0731 | 0.403 | 0.0611 | -0.0459 | -0.125 | -0.126
11 | CGCACTC | -0.0393 | -0.113 | 0.0934 | 0.223 | -0.00624 | 0.268 | 0.0114 | -0.234 | -0.0163 | 0.0507
12 | ATATACA | -0.122 | -0.0509 | -0.261 | -2.23 | -0.0628 | -0.697 | -0.188 | 0.107 | -0.125 | 0.0196
13 | ACTTTGC | 0.0101 | -0.00575 | -0.505 | -0.0719 | 0.0702 | -0.799 | 0.139 | -0.0829 | 0.0774 | 0.0572
14 | AACTTCA | -0.301 | -0.0787 | -0.251 | -2.54 | 0.0264 | -0.751 | -3.15 | -0.034 | 0.0337 | 0.0801
15 | CCTACAA | -0.0718 | 0.0514 | -0.285 | -1.91 | 0.143 | -0.768 | 0.178 | -0.101 | 0.117 | 0.149
16 | CGTAAAC | -0.0193 | -0.0196 | -0.0308 | -0.248 | 0.0572 | -0.597 | -0.0118 | 0.068 | 0.00193 | 0.0373
17 | CAAAAAG | 0.0446 | 0.0248 | -0.794 | -0.643 | 0.18 | -1.05 | 0.203 | 0.129 | 0.183 | -0.107
18 | AACAGCA | -0.0655 | -0.0195 | -0.56 | -1.89 | -0.0268 | -1.12 | -0.264 | -0.0552 | 0.00874 | -0.0873
19 | GGTATAG | -0.022 | 0.0762 | 0.113 | 0.579 | 0.0026 | -0.0418 | 0.16 | -0.0377 | 0.175 | 0.104
20 | GACAGCA | 0.0239 | 0.104 | 0.184 | -0.0185 | 0.00384 | 0.00112 | -0.0559 | 0.0955 | 0.0819 | 0.114
21 | CCCAGGC | 0.0448 | 0.157 | 0.106 | 0.237 | -0.0447 | -0.517 | 0.0474 | 0.108 | 0.0638 | 0.00595
22 | CCACTGT | 0.0141 | -0.0694 | -0.0991 | -0.0314 | -0.167 | 0.185 | -0.147 | -0.198 | -0.12 | -0.109
23 | ACCTTCT | -0.793 | -0.103 | -0.458 | -2.33 | -0.0973 | -1.01 | -2.63 | – | -0.326 | -0.191
24 | AATAATT | -1.06 | -2.6 | -1.31 | -2.8 | -0.128 | -0.947 | -3.95 | – | -0.0206 | -0.264
25 | CCGCTTC | 0.0278 | 0.0117 | 0.172 | -0.235 | -0.00776 | -0.409 | 0.00925 | – | -0.158 | -0.0316
26 | TTATGCC | -0.0257 | -0.0294 | -0.275 | -0.594 | -0.0293 | -1.16 | -0.011 | – | 0.0867 | -0.205
27 | ACTTTTA | -0.158 | -0.145 | -0.348 | -1.84 | 0.0955 | -0.749 | -0.129 | – | -0.121 | -0.0221
28 | TTTTGGT | -1.57 | -0.0408 | 0.13 | -0.176 | 0.0288 | -0.18 | -1.23 | – | 0.0199 | -0.0203
29 | GGCCATT | -0.0139 | 0.0466 | 0.87 | 1.77 | -0.00652 | 2.16 | 0.145 | – | 0.17 | 0.154
30 | TTAGCCA | -0.0613 | 0.0138 | 0.127 | -0.682 | -0.0333 | -0.311 | -0.0733 | – | 0.0105 | -0.00233

From the supplement of paper PMC7826260
